Measured values reported in paper PMC7819943, “Rice protein-binding microarrays: a tool to detect cis-acting elements near promoter regions in rice”.
The list shows a part of the results.

Each sequence was assayed against T1, OsWOX13 (Oryza sativa, UniProt Q5QMM3 1-267) (assay: protein-binding microarray (RPBM); PBS, 2% BSA, 51.3 ng/ul salmon testes DNA, 50 uM zinc acetate, 200 nM TF, 25 C, 1 h; high values mean tight binding). Settings: protein: recombinant; tags: N-terminal polyhistidine and DsRed monomer fusion (pET32a); label: CyDye5-dUTP incorporated in the synthesized complementary strand; 3' TTTTT single-stranded linker to array surface; dsDNA, one strand shown.
T1 sequence: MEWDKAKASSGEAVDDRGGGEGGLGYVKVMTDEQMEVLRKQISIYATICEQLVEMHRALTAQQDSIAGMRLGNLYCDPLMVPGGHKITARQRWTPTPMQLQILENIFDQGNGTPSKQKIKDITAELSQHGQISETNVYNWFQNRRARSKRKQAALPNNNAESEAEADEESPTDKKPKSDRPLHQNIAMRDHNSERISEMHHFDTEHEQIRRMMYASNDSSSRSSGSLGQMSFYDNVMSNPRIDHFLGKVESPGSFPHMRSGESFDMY
Procedure, shortened: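 A custom Agilent array was converted to double-stranded form by primer extension with Cy5-dUTP and blocked with 2% BSA. Protein at 200 nM in PBS with 2% BSA, salmon testes DNA and 50 µM zinc acetate was applied for 1 h at 25 °C, followed by washing. The proteins were polyhistidine–DsRed N-terminal fusions of transcription factors, expressed in E. coli BL21-CodonPlus and Ni–NTA-purified. The binding signal is per-feature fluorescence intensity (arbitrary units) from an Axon 4000B scanner.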

Sequence | binding signal
GAAAACAAATTATCGTCACGGATTGCCTCTGTCAGTGACGCGGAGTCACCTAGTGCAG | 20600 fluorescence intensity (a.u.)
TATGATGCTAATTATCCACAATCTGAGATTTCTCGTCACTCGGAGTCACCTAGTGCAG | 21100 fluorescence intensity (a.u.)
CAGAATTAACTCGCTGTCAAAATTTTAGGTATAAGAACATCGGAGTCACCTAGTGCAG | 8820 fluorescence intensity (a.u.)
ATGATTGATTGCTTTTCCTAAATCCTAACCATGATGCTGTCGGAGTCACCTAGTGCAG | 65000 fluorescence intensity (a.u.)
ATTTCGCCTAATTAATCGATCATTAGCACATATGGGTTACCGGAGTCACCTAGTGCAG | 13200 fluorescence intensity (a.u.)
ATTAAACTTACCAAGATTGCATTGCACCAACCAATTAGTTCGGAGTCACCTAGTGCAG | 4340 fluorescence intensity (a.u.)
ACTAAACAAACTGACTAGACTCCTAGAACTAAGGAACTGGCGGAGTCACCTAGTGCAG | 8250 fluorescence intensity (a.u.)
AAATTCCTGATTTACAGTGATCCCAGTCACCCCGGTCTTCCGGAGTCACCTAGTGCAG | 10000 fluorescence intensity (a.u.)
GATTTTGATAAATTTAATCGACTTCTTTAGAAACTTGTGTCGGAGTCACCTAGTGCAG | 7930 fluorescence intensity (a.u.)
CACTAATTTACCAATTATTGAATTTCAGAATAATCAATTACGGAGTCACCTAGTGCAG | 18800 fluorescence intensity (a.u.)
AAGCGGCATTGATTGCAAATGATAGAACACATATTGAAATCGGAGTCACCTAGTGCAG | 11700 fluorescence intensity (a.u.)
ATTGATAATTTGAAGAGGATTAGGTAAGAGCCATCAGGCTCGGAGTCACCTAGTGCAG | 22800 fluorescence intensity (a.u.)
AAAACGATTGATAGGGATTTGAAGTATCTCATTGGCAATTCGGAGTCACCTAGTGCAG | 11500 fluorescence intensity (a.u.)
GTGAAAATGATTGGTCTTTTGATTAACATATGCAGCTTATCGGAGTCACCTAGTGCAG | 53300 fluorescence intensity (a.u.)
TGACTTGATTAATTGCTTCTATGTTTGGCACCCAATTAATCGGAGTCACCTAGTGCAG | 44900 fluorescence intensity (a.u.)
TACAATTATGATTTGCCTTCAAATTTGCATTTTCATATTTCGGAGTCACCTAGTGCAG | 13500 fluorescence intensity (a.u.)
GAATTGATTGCATGCAAACGGGGCAGCACACTGATACTCGCGGAGTCACCTAGTGCAG | 38400 fluorescence intensity (a.u.)
TCATAATTATAATTGCCATCTCTACTTGGTATCAGGTACACGGAGTCACCTAGTGCAG | 26700 fluorescence intensity (a.u.)
CCAAAACTAATTTATAAAATACTTTCTCGAAATCCCCGGACGGAGTCACCTAGTGCAG | 19200 fluorescence intensity (a.u.)
TACAATGTAATTAGTCTAATTCAGTAACATATTTTAAGAGCGGAGTCACCTAGTGCAG | 15800 fluorescence intensity (a.u.)
GTTAATTAGCTAATTTGGGTGAATCCATCCATCCATCCAACGGAGTCACCTAGTGCAG | 40700 fluorescence intensity (a.u.)
CAAAATTGTTTGGTTATTTTGAAGTCCGAGGGAGTACTGTCGGAGTCACCTAGTGCAG | 6490 fluorescence intensity (a.u.)
TTGGTAATAATTTGTTCAAATTTAACAAAATTTATCAAAACGGAGTCACCTAGTGCAG | 11000 fluorescence intensity (a.u.)
CCAAGGTGATTACGCCACCTTCTCGCCTTCCTCGTGTATACGGAGTCACCTAGTGCAG | 6020 fluorescence intensity (a.u.)
TGACTATGATTTGGAAGACTTTTGTCAGCTAATTCATGTACGGAGTCACCTAGTGCAG | 8550 fluorescence intensity (a.u.)
TCTGGATTGGCCTTCCAGATTTGCAGTTAGAGACTCAAGACGGAGTCACCTAGTGCAG | 6750 fluorescence intensity (a.u.)
CCTTGACAAAATTTCCTCCACCCATTCCCTTCTCCACCCACGGAGTCACCTAGTGCAG | 19000 fluorescence intensity (a.u.)

Sequence | binding signal
ATCTTATCTAATTAGACGACCTACGAACATCTCAAATCGTCGGAGTCACCTAGTGCAG | 15900 fluorescence intensity (a.u.)
GATATAATTGGTATTATTACTAGGTTGGTGTGATATCCTACGGAGTCACCTAGTGCAG | 27400 fluorescence intensity (a.u.)
TTATAATTGGTTAGGATAAAAGAGCATGTAGAAAATTTAACGGAGTCACCTAGTGCAG | 11100 fluorescence intensity (a.u.)
CTTGATTTCACAAAATTTAGCAGGCAAAATTTGCTACTCCCGGAGTCACCTAGTGCAG | 27100 fluorescence intensity (a.u.)
ATTAAATTTGGTTTGCAGTGTTCGCGAAATAAACACGATTCGGAGTCACCTAGTGCAG | 4780 fluorescence intensity (a.u.)
AATTAAATTAATTTACAAATAAAGTAAGTGTGGGAAGAAACGGAGTCACCTAGTGCAG | 37700 fluorescence intensity (a.u.)
TTGATATGTAAATTTCGCGTAATTTCATATGTAGAACAATCGGAGTCACCTAGTGCAG | 12400 fluorescence intensity (a.u.)
GTACATTATTCAATTTAGTTGTGTGCATCTAGCTTACTGACGGAGTCACCTAGTGCAG | 3710 fluorescence intensity (a.u.)
TTTTACATCATTATATTTGATTAGTGCAAATTTGGTCCTTCGGAGTCACCTAGTGCAG | 14500 fluorescence intensity (a.u.)
GATAATTTACTCCAGTTTACTTCTGCCTGCGGATTCCAATCGGAGTCACCTAGTGCAG | 18800 fluorescence intensity (a.u.)
TTATATAGTTACCAAAATTTGACAGCAAACTAAATGTAGCCGGAGTCACCTAGTGCAG | 3680 fluorescence intensity (a.u.)
GAGATTTTGACTGCTTTGGTACCATTCAGTGAGATGACACCGGAGTCACCTAGTGCAG | 5520 fluorescence intensity (a.u.)
GGATTTCTTGATTAGGGAAAAGGGGATGTGCAAAACTAAACGGAGTCACCTAGTGCAG | 7860 fluorescence intensity (a.u.)
GAAAATTATTTTCTTGGTTGGTTTCTTAAGAGAGCCGTGTCGGAGTCACCTAGTGCAG | 5340 fluorescence intensity (a.u.)
ATTTGACAAAATCTTTAAAAGAATTAGGTTTATCGATAAGCGGAGTCACCTAGTGCAG | 5550 fluorescence intensity (a.u.)
GATTAATTTAGAAATTTTGAATTCTATTACATAATGATCACGGAGTCACCTAGTGCAG | 20600 fluorescence intensity (a.u.)
CATCAATTTTCCAAATTTTGCTACCTGTACACAGGAGATCCGGAGTCACCTAGTGCAG | 6180 fluorescence intensity (a.u.)
TGAGTGATGACAGTAAGTAACTGAATCTGCTGAGTTCTGACGGAGTCACCTAGTGCAG | 6590 fluorescence intensity (a.u.)
GGGAGAGGTGATGAGTGATTGGAGTAGAGGGGAGATGAGGCGGAGTCACCTAGTGCAG | 12600 fluorescence intensity (a.u.)
CTAAATTTGTTATTAATAACATTTGGATAAACACTTTTCTCGGAGTCACCTAGTGCAG | 14500 fluorescence intensity (a.u.)
AAATGTTTAATTAATTATAAGAAAATAGGTCGCTCTATTTCGGAGTCACCTAGTGCAG | 26000 fluorescence intensity (a.u.)
ATAAGATTTGACACCTGATACTGATACTGTCCAGTTTATGCGGAGTCACCTAGTGCAG | 4360 fluorescence intensity (a.u.)
AGTTTATTCAATCAGTGATATTCCTACGAAATGTTGGATACGGAGTCACCTAGTGCAG | 18100 fluorescence intensity (a.u.)
GACAACTTGATAGAGTGTGACACGCTCTTGTGAATAATCTCGGAGTCACCTAGTGCAG | 3510 fluorescence intensity (a.u.)
ATGCTAGGGAGATTAGATTGACTGAGATTGCTGAGGGGTACGGAGTCACCTAGTGCAG | 36600 fluorescence intensity (a.u.)
GATTAATAATGTAAAATTGATGTTACTAGATTTATTATTACGGAGTCACCTAGTGCAG | 6450 fluorescence intensity (a.u.)
TAGTAAATTACAATTTAATTCCGAAATGTTGGGTGATACACGGAGTCACCTAGTGCAG | 35900 fluorescence intensity (a.u.)
